Laboratory results taken from the supplement of paper PMC11741623.
This is one part of the list. Interaction screen of human proteins with wild-type SARS-CoV-2 proteins by split-DHFR complementation in yeast, 1 µg/mL methotrexate. Value = fitness of the pair (three or more lineages) minus that of the viral protein without a human partner, on a scale set by negative (0) and fused positive (1) controls, mean of up to three cultures; higher = more likely to interact. Active = false discovery rate below 0.05 (one-sided t-test) in at least one culture. Nearly all pairs are not hits, and differences among them are mostly noise (correlation between cultures about 0.3); most hits were seen in one culture only. Human sequences are the Swiss-Prot entries looked up by gene name; the clone may be another isoform. NSP2 values were corrected by the authors for a growth advantage. Listed are human proteins with a hit and a random twelfth of the others.

B1: GJB7, Q6PEY0 (protein)
chain: MSWMFLRDLLSGVNKYSTGTGWIWLAVVFVFRLLVYMVAAEHVWKDEQKEFECNSRQPGCKNVCFDDFFPISQVRLWALQLIMVSTPSLLVVLHVAYHEGREKRHRKKLYVSPGTMDGGLWYAYLISLIVKTGFEIGFLVLFYKLYDGFSVPYLIKCDLKPCPNTVDCFISKPTEKTIFILFLVITSCLCIVLNFIELSFLVLKCFIKCCLQKYLKKPQVLSV
B2: TPPP2, P59282 (protein)
chain: MASEAEKTFHRFAAFGESSSSGTEMNNKNFSKLCKDCGIMDGKTVTSTDVDIVFSKVKAKNARTITFQQFKEAVKELGQKRFKGKSPDEVLENIYGLMEGKDPATTGATKATTVGAVDRLTDTSKYTGTHKERFDESGKGKGIAGREEMTDNTGYVSGYKGSGTYDKKTK
B3: C8orf34, Q49A92 (protein)
chain: MSSPLASELSELAALRPGFRLSAPHARVAPRAATHARGRGRASHAGQPRLRSSCPGPSPGKRRVVPSGGAQPRVLPALSSRSHLFPMASHPQTRIQAYLEKNKIGPLFEELMTKLITETPDQPIPFLIDHLQSKQGNRGQLQRTLSGSAALWAESEKSESKGTRRDFRSYDKPWQLNAKKPKKSKSDLAVSNISPPSPDSKSLPRSVEHPKWNWRTKPQSRDFDELNHILQESKKLGKALENLSRSIAISDELDKETVTFNSSLLRPRVIGEWIGREENDADPLAAEMLQPPIPRSKNDQWESEDSGSSPAGSLKMEPKNKGLKQQQQQHKKLLAAMLSQDSFESIHSPTPSVTEEDIDNEDDAMELLEDLNDLRMEGVTTLVPSGSKFNQGRPTYPAEPQAKVTLNICSRCARLQGDNLEERTEESLPILHSPDEKIPDSFDSLPGTEEALMEEGDEFEKASKLTGPGEASSGVGHSLKNYMEEDESLKQLQVVHQPWILPSDTESEGVEAEQEKRSADLLLCVPCSSCPTLVYSGL
B4: GBAS, O75323 (protein)
chain: MAARVLRARGAAWAGGLLQRAAPCSLLPRLRTWTSSSNRSREDSWLKSLFVRKVDPRKDAHSNLLAKKETSNLYKLQFHNVKPECLEAYNKICQEVLPKIHEDKHYPCTLVGTWNTWYGEQDQAVHLWRYEGGYPALTEVMNKLRENKEFLEFRKARSDMLLSRKNQLLLEFSFWNEPVPRSGPNIYELRSYQLRPGTMIEWGNYWARAIRFRQDGNEAVGGFFSQIGQLYMVHHLWAYRDLQTREDIRNAAWHKHGWEELVYYTVPLIQEMESRIMIPLKTSPLQ
B5: CCDC96, Q2M329 (protein)
chain: MDVSSEHTKDPGGEGGDGESLAARPSKIKASSGPPTSPEPGELESEPEEEEEEQAASQGGTAADEQAEAPKGLTAAEAAGEEGPGEPGRPAEPQPEPEEPAEVGAEEPAQPEPGAGPEELEAEAGAEELEQAAEGKEVRFQASLPLTRIDEEEAAAAPEAETERVEGEEEDKEETQRDGAESKERDGEGRPAKSQEEGKRLYGRDEFEDLEWSEEVQKLQEQQLRSDLLDQYRSLLVERNRSQRYNLYLQHKIFEALRRKKGLEAAEVADRGAEAEAPEKEQAYLRHLGMLEELKKQQADDLQWYHQELGQLKRQCQEKLTRVEKEWRRFQALKKQVVMQAMGSCRMRGGRQAALREVEQIQALEDKKEKEMSAVRLENIQLKQSLVHFETRMRTQEDLTQGLLLIDFEQLKIENQTFNEKIEERNEELLKLRSKVTNSVQVITHVKEKLHFMDMENACKKTQLAEIEAQAALGRDILTKTKQAREGLRTDNIRLNQKCGLLGKDSLLRDLEEKVDKTELLHRRLESLKRHHASLTLSCRGVRQKIREAKAFLPS

The binders below were run against SARS-CoV-2 M (assay: yeast fitness gain over the viral ORF with no human partner (scaled fitness); higher = more likely to interact).
Description: (§1)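 Split mouse DHFR complementation in pooled diploid yeast: human ORFeome clones carry one fragment and viral ORFs the other; barcoded lineages compete in 1 µg/mL methotrexate and fitness is read by barcode sequencing in up to three cultures.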
B1 was tested, and the yeast fitness gain was inactive: 0.037. For B2, the yeast fitness gain was inactive: 0.0202. With B3 the yeast fitness gain was inactive: 0.0112. With B4 the yeast fitness gain was inactive: 0.0109. B5 was tested, and the yeast fitness gain was inactive: 0.0279.

Each binder was assayed against SARS-CoV-2 NSP10 in the same assay as above.
Description: as §1
For B1, the yeast fitness gain was inactive: -0.0355. With B2 the yeast fitness gain was inactive: 0.108. For B3, the yeast fitness gain was inactive: -0.018. With B4 the yeast fitness gain was inactive: 0.0581. For B5, the yeast fitness gain was inactive: 0.0238.

What follows are binders tested against SARS-CoV-2 NSP12 in the same assay as above.
Description: as §1
B1 was tested, and the yeast fitness gain was inactive: -0.126. For B2, the yeast fitness gain was inactive: 0.0487. For B3, the yeast fitness gain was inactive: -0.146. For B4, the yeast fitness gain was inactive: -0.0743.

These binders were tested against SARS-CoV-2 NSP13 in the same assay as above.
Description: as §1
B1 was tested, and the yeast fitness gain was inactive: -0.169. For B2, the yeast fitness gain was inactive: -0.00969. With B3 the yeast fitness gain was inactive: -0.0124. In the case of B4, the yeast fitness gain is reported as inactive: 0.0703.

The binders below were run against SARS-CoV-2 NSP15 in the same assay as above.
Description: as §1
In the case of B1, the yeast fitness gain is reported as inactive: -0.019. B3 was tested, and the yeast fitness gain was inactive: 0.0673. For B4, the yeast fitness gain was inactive: -0.0762.

The binders below were run against SARS-CoV-2 NSP2 in the same assay as above.
Description: as §1
For B1, the yeast fitness gain was inactive: -0.259. With B2 the yeast fitness gain was active: 0.392. B3 was tested, and the yeast fitness gain was inactive: -0.176. B4 was tested, and the yeast fitness gain was inactive: -0.0645.

The binders below were run against SARS-CoV-2 NSP5 in the same assay as above.
Description: as §1
With B1 the yeast fitness gain was inactive: 0.0412. In the case of B2, the yeast fitness gain is reported as inactive: -0.109. In the case of B3, the yeast fitness gain is reported as inactive: 0.0589. For B4, the yeast fitness gain was inactive: -0.0608.

What follows are binders tested against SARS-CoV-2 NSP6 in the same assay as above.
Description: as §1
B1 was tested, and the yeast fitness gain was inactive: -0.115. B2 was tested, and the yeast fitness gain was inactive: 0.0692. B3 was tested, and the yeast fitness gain was inactive: 0.0225. B4 was tested, and the yeast fitness gain was inactive: -0.135.

The binders below were run against SARS-CoV-2 NSP7 in the same assay as above.
Description: as §1
For B1, the yeast fitness gain was inactive: 0.0526. B2 was tested, and the yeast fitness gain was inactive: -0.0462. With B3 the yeast fitness gain was inactive: -0.0771. With B4 the yeast fitness gain was inactive: 0.0249. For B5, the yeast fitness gain was inactive: 0.00443.

Each binder was assayed against SARS-CoV-2 NSP8 in the same assay as above.
Description: as §1
For B1, the yeast fitness gain was inactive: 0.013. In the case of B2, the yeast fitness gain is reported as inactive: -0.0596. For B3, the yeast fitness gain was inactive: 0.105. In the case of B4, the yeast fitness gain is reported as inactive: -0.061. With B5 the yeast fitness gain was inactive: -0.0699.

Each binder was assayed against SARS-CoV-2 ORF10 in the same assay as above.
Description: as §1
In the case of B1, the yeast fitness gain is reported as inactive: -0.00305. For B2, the yeast fitness gain was inactive: -0.0165. With B3 the yeast fitness gain was inactive: 0.0474. With B4 the yeast fitness gain was inactive: -0.0211.

The binders below were run against SARS-CoV-2 ORF3B in the same assay as above.
Description: as §1
In the case of B1, the yeast fitness gain is reported as inactive: -0.11. In the case of B2, the yeast fitness gain is reported as inactive: 0.0546. For B3, the yeast fitness gain was inactive: -0.0632. In the case of B4, the yeast fitness gain is reported as inactive: 0.00182. In the case of B5, the yeast fitness gain is reported as inactive: 0.0194.

These binders were tested against SARS-CoV-2 ORF6 in the same assay as above.
Description: as §1
In the case of B1, the yeast fitness gain is reported as inactive: -0.129. In the case of B2, the yeast fitness gain is reported as inactive: 0.1. B3 was tested, and the yeast fitness gain was inactive: -0.0033. For B4, the yeast fitness gain was inactive: -1.7e-05.

These binders were tested against SARS-CoV-2 ORF7A in the same assay as above.
Description: as §1
For B1, the yeast fitness gain was inactive: 0.296. For B2, the yeast fitness gain was inactive: 0.0875. For B3, the yeast fitness gain was inactive: -0.16. With B4 the yeast fitness gain was inactive: 0.00169.

These binders were tested against SARS-CoV-2 ORF7B in the same assay as above.
Description: as §1
In the case of B1, the yeast fitness gain is reported as inactive: 0.193. With B2 the yeast fitness gain was inactive: -0.117. For B3, the yeast fitness gain was inactive: 0.00776. For B4, the yeast fitness gain was inactive: -0.0796.

The binders below were run against SARS-CoV-2 ORF8 in the same assay as above.
Description: as §1
In the case of B1, the yeast fitness gain is reported as inactive: 0.00109. In the case of B2, the yeast fitness gain is reported as inactive: -0.0115. In the case of B3, the yeast fitness gain is reported as inactive: -0.0396. In the case of B4, the yeast fitness gain is reported as inactive: 0.0557.

These binders were tested against SARS-CoV-2 ORF9B in the same assay as above.
Description: as §1
In the case of B1, the yeast fitness gain is reported as inactive: -0.0544. B2 was tested, and the yeast fitness gain was inactive: -0.019. For B3, the yeast fitness gain was inactive: 0.00496. For B4, the yeast fitness gain was inactive: 0.0525.

What follows are binders tested against SARS-CoV-2 S in the same assay as above.
Description: as §1
For B1, the yeast fitness gain was inactive: 0.0363. With B2 the yeast fitness gain was inactive: -0.0124. B3 was tested, and the yeast fitness gain was inactive: -0.13. B4 was tested, and the yeast fitness gain was inactive: -0.00227.

These binders were tested against SARS-CoV-2 NSP16 in the same assay as above.
Description: as §1
B2 was tested, and the yeast fitness gain was inactive: -0.058. For B3, the yeast fitness gain was inactive: 0.0562. For B4, the yeast fitness gain was inactive: -0.129.

What follows are binders tested against SARS-CoV-2 ORF9Bwu (the 73-codon ORF) in the same assay as above.
Description: as §1
With B2 the yeast fitness gain was inactive: -0.0204. B4 was tested, and the yeast fitness gain was inactive: 0.0547. B5 was tested, and the yeast fitness gain was inactive: -0.032.

What follows are binders tested against SARS-CoV-2 N in the same assay as above.
Description: as §1
For B3, the yeast fitness gain was inactive: 0.0446. For B5, the yeast fitness gain was inactive: 0.0624.

These binders were tested against SARS-CoV-2 NSP9 in the same assay as above.
Description: as §1
For B3, the yeast fitness gain was inactive: -0.115. For B4, the yeast fitness gain was inactive: -0.0141. B5 was tested, and the yeast fitness gain was inactive: -0.0107.

These binders were tested against SARS-CoV-2 ORF3A in the same assay as above.
Description: as §1
With B3 the yeast fitness gain was inactive: -0.165. In the case of B4, the yeast fitness gain is reported as inactive: 0.0476. B5 was tested, and the yeast fitness gain was inactive: -0.0504.

The binders below were run against SARS-CoV-2 NSP1 in the same assay as above.
Description: as §1
B4 was tested, and the yeast fitness gain was inactive: -0.0583. In the case of B5, the yeast fitness gain is reported as inactive: -0.0934.

These binders were tested against SARS-CoV-2 NSP4 in the same assay as above.
Description: as §1
With B4 the yeast fitness gain was inactive: -0.268.
